The text below walks through data of PMC12136788.

Some of the results follow.

T1: UNK ZnF1-3 (human, UniProt Q9C0B0 31-174)
T1 sequence: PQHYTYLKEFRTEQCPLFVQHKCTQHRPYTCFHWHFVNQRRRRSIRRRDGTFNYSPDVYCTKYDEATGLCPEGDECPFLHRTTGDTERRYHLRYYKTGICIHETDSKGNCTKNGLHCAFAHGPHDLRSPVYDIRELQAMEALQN

B1: chr8:95500983:95500984:-_ENSG00000164944_ENST00000437199|hu_hu|hu_hu_hu_mus_True|18_58 (ssRNA)
RNA: GGGAGUUCUACAGUCCGACGAUCAGAACACAUCUAUCGAGUAAAGGACCGUACAUGACGGCCUCUACCACUGCCUCCCACUAACAACUUUCCUCUCGAGCCUCCACUGCCGCUAUUUUGCACUAGCCAGGACGGUCCCAGGCCCAACAGAGGAUUGAGCAUCA
B2: chr15:40462788:40462789:+_ENSG00000156970_ENST00000287598|hu_mus|motif|central (ssRNA)
RNA: GGGAGUUCUACAGUCCGACGAUCAAAGCGGGGGUCAUUAUAAUAGCGCGUCUCUCCUUGGAGUGCUUCUAUCGCUCUCUCCACGGACGCUGACAUGUUACUCUCUUUCCCCCCUUGAGGGUAGUUCUGUUCUGUCCAAUUAAUCAACAGAGGAUUGAGCAUCA
B3: chr3:179287964:179287965:+_ENSG00000136518_ENST00000429709|hu_hu|hu_hu_hu_mus_True|18_68 (ssRNA)
RNA: GGGAGUUCUACAGUCCGACGAUCCUUGAGUGGUGAGAUGGCCUCCAUGUUCUCCCUGGGCACGCGGAGAGCAUUAGUGUCUAUGUAGUAGGUGGGCCCGCCCUGCUUGCCUUUGUCGCCAUCUAUUUCCAUCAUUGUACUUCCCAACAGAGGAUUGAGCAUCA
B4: 39934136_39934256_631_CDS_ENSG00000183337_ENST00000397354|human|control|control (ssRNA)
RNA: GGGAGUUCUACAGUCCGACGAUCUCCAGGCGGUGUUUUGUAUAUAGCACUGAAGCCAUUUGGGGGUUUUCCAGAGACGGCAGAAGCCUCCACUGUCUCGGGUGUAUUCGGUUUGAACUGCAUCUCUGGAUUUCUUUCCGAAGACAACAGAGGAUUGAGCAUCA
B5: chrX:91785444:91785445:-_ENSMUSG00000025151_ENSMUST00000026142|mus_hu|FALSE|FALSE (ssRNA)
RNA: GGGAGUUCUACAGUCCGACGAUCAUUGGCAUUGAGAGACUGAGAGAAAUUGUAGGUGGCAUUUGGGCCCACUUUAGUAGUGGCAUUCUGGGCCUUGAAGGCCAUCUCAGACUUGUUAGCAGCUAACUCACCAGUGGUUGCUGCCAACAGAGGAUUGAGCAUCA
B6: chr1:153634984:153634985:-_ENSG00000143621_ENST00000361891|hu_hu|FALSE|FALSE (ssRNA)
RNA: GGGAGUUCUACAGUCCGACGAUCUUCCUCUCCUUCCUUCUUCUCUGGUGGCUUCUCAUAAGCCUUUUCUGAAGGUGUUACUAUCACUCCAUCCCAGGUAGAUAUUUCAGAAGCAAGAUAGCUGGCAUCACCCUCCUGGCCAAGCAACAGAGGAUUGAGCAUCA
B7: chr12:88580095:88580096:-_ENSMUSG00000021038_ENSMUST00000072744|mus_mus|motif|central (ssRNA)
RNA: GGGAGUUCUACAGUCCGACGAUCACGUGCUGAAGCAGAUGGCUCACCACCUGGACAGUGUGCAGGUGUCAGAGGGACCCGGUAUCCCUCACACGUCCCUACACAAAGUUGACAGGGACAGUGCCGUGACAGCAGGUAGAUACUCAACAGAGGAUUGAGCAUCA
B8: chr2:9570881:9570882:+_ENSG00000119203_ENST00000238112|hu_mus|hu_hu_hu_mus_False|18_58 (ssRNA)
RNA: GGGAGUUCUACAGUCCGACGAUCACUUGUCUUCUGAAGGAACCAGGGCAGGGCUCCACAGUGAUCCAAAUGGAAAUGACUAAUUAACAGAAGGUCGAUCUCAGCUGGGUCGAUAAGAUCAAUAUAAGGAAGGGCAUCCAUUCCCAACAGAGGAUUGAGCAUCA
B9: chr1:39494447:39494448:+_ENSG00000168653_ENST00000372967|hu_mus|hu_hu_hu_mus_False|28_78 (ssRNA)
RNA: GGGAGUUCUACAGUCCGACGAUCGCACCGAGCGGCGUUCUUAUAGGGCUGUUCUGCACUCUGGAUUAUAAAGUGCCGGUCCAGGCUGAUGCCCAGCUUUUUCUGUAUGUCCAAGAAAGGCAUGGCUCUGCAGUGCCCUUGUCACAACAGAGGAUUGAGCAUCA
B10: chr12:46321692:46321693:-_ENSG00000139218_ENST00000369367|hu_hu|motif|central (ssRNA)
RNA: GGGAGUUCUACAGUCCGACGAUCGCUCUCUAUAAGCUCCUCUGUUUUUAGUGUAAAAUCUUUAUGUUCAGUAAUUUCGGCGGGGGAACUCUCUGUUAUUUUUUCUUCAUUAACCACUGACUCUACAUUCUCAGAUAAGUCACUCAACAGAGGAUUGAGCAUCA
B11: 103279366_103279486_885_CDS_ENSG00000134900_ENST00000376065|human|control|control (ssRNA)
RNA: GGGAGUUCUACAGUCCGACGAUCUGUGCUUAGUCUUGUAUCACCAAUCUUGAUGGAAAGAAUUUGAGCACCAGGAGCUACCCCAUUCCGUUCAGGUUCUUCUGGAAAGUGUCCAGCAGCUAUACUAGCUACAUGUGUCCCAUGCAACAGAGGAUUGAGCAUCA
B12: chr3:149686237:149686238:-_ENSG00000070087_ENST00000452853|perfect_dup|motif|central (ssRNA)
RNA: GGGAGUUCUACAGUCCGACGAUCCUCCCCACCUUGACUCUUUGUCCGGAUGUCCAUUGUGCAGUCACCAUCAACGUAUAGGCGGUCUCUGAUCACAGAACACUUCUUUGCUCCAAGAGUCAAACCGUUGGUAAAGAAACCUUCCAACAGAGGAUUGAGCAUCA
B13: chr17:65740002:65740003:+_ENSG00000130935_ENST00000581375|hu_hu|hu_hu_hu_mus_False|58_98 (ssRNA)
RNA: GGGAGUUCUACAGUCCGACGAUCAACAAAUCUUUCUCUGGAUGAAGAACAGGAAGAUUCAUAUUAAAAAAAAUAUAUGUCUAUGAAGUUAGGUGUGGUGGCCACACCUUUACUCCCAGCACUUUGGGAGGUGGAUCUCUGAGUCAACAGAGGAUUGAGCAUCA
B14: 72633974_72634094_1624_3pUTR_ENSMUSG00000002341_ENSMUST00000002412|mouse|control|control (ssRNA)
RNA: GGGAGUUCUACAGUCCGACGAUCGCUCUGCUACCUCAGGCAGCUGGUCUUCUGGGCCCUGCUGCUGGAAGUGUCGACCAUUCAACCCUUUAAAGCGGCCCCUCCUCAUCGUGGGGGUGGGUGCUACCUGUGUGCCCAAGGGUGCAACAGAGGAUUGAGCAUCA

This test deals with T1, UNK ZnF1-3. Put plainly: nsRBNS (natural sequence RNA bind-n-seq); RBNS binding buffer (assumed for nsRBNS): 25 mM Tris pH 7.5, 150 mM KCl, 3 mM MgCl2, 0.01% Triton X-100, 500 ug/ml BSA, 20 U/ml SUPERase-In, 4 C; UNK is unkempt and MSI1 is Musashi-1; names of the RNAs are library labels; protein concentration not given here; high values mean tight binding.
B1 had a binding signal of 1.04 enrichment R.

B2: the binding signal turned out to be 0.314 enrichment R.

With B3, the binding signal turned out to be 0.663 enrichment R.

B4 showed a binding signal of 0.426 enrichment R.

Take B5: the binding signal came to 1.05 enrichment R.

The molecule B6 displayed a binding signal of 1.16 enrichment R.

The molecule B7 gave a binding signal of 0.632 enrichment R.

Molecule B8 came in with a binding signal of 1.14 enrichment R.

Molecule B9 had a binding signal of 0.845 enrichment R.

B10 yielded a binding signal of 0.736 enrichment R.

B11: the binding signal was 1.09 enrichment R.

B12 showed a binding signal of 1.09 enrichment R.

As for B13, the binding signal was 1.71 enrichment R.

Molecule B14 displayed a binding signal of 0.562 enrichment R.
